Assay results from paper PMC6286407.
Results are given in words; binding and its absence hold for the method and conditions named. For some assays here: Binding seen in cells or lysates may run through a third protein. Some binding calls cover weakened binding; strength is not graded here. For some assays here: Sequences can lack the tags named with a protein.

T1: CHMP4B-L-GFP (UniProt Q9H444)
T1 sequence: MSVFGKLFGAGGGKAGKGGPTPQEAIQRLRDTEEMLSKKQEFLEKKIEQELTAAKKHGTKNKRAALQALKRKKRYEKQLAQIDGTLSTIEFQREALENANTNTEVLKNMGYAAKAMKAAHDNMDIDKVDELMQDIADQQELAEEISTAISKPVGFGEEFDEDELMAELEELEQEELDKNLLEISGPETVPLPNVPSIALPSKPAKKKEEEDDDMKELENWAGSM

B1: endogenous CC2D1B (protein, UniProt Q5T0F9 1-858)
chain: MMPGPRPRKGPQARGQGVAAAKQMGLFMEFGPEDMLLGMDEAEDDEDLEAELLALTGEAQTTGKKPAPKGQAPLPMAHIEKLAADCMRDVEEEEEEEGLEEDAELLTELQEVLGVDEETEPLDGDEVADPGGSEEENGLEDTEPPVQTAVLTASAPAAQAGASQGLHALLEERIHNYREAAASAKEAGEAAKARRCERGLKTLESQLASVRRGRKINEDEIPPPVALGKRPLAPQEPANRSPETDPPAPPALESDNPSQPETSLPGISAQPVSDLDPDPRALLSSRQREYKVAALSAKRAGELDRARELMRIGKRFGAVLEALEKGQPVDLSAMPPAPEDLKPQQASQAPTAPSVIPPAVERVQPVMAPDVPATPVAPTESQTVLDALQQRLNKYREAGIQARSGGDERKARMHERIAKQYQDAIRAHRAGRKVNFAELPVPPGFPPIPGLESTMGVEEDAVAATLAAAEKLASAEDSAPADKDEDEPPGHLQGEPPAQAPVAKKPARPTVPSSQRLPEPRASSSKESPSPSVREQLALLEARKLQYQRAALQAKRSQDLEQAKAYLRVAKWLEAQIIQARSGRPVDLSKVPSPLTDEEGDFILIHHEDLRLSQKAEEVYAQLQKMLLEQQEKCLLFSKQFMHQGNVAETTRFEKLAQDRKKQLEILQLAQAQGLDPPTHHFELKTFQTVRIFSELNSTEMHLIIVRGMNLPAPPGVTPDDLDAFVRFEFHYPNSDQAQKSKTAVVKNTNSPEFDQLFKLNINRNHRGFKRVIQSKGIKFEIFHKGSFFRSDKLVGTAHLKLERLENECEIREIVEVLDGRKPTGGKLEVKVRLREPLSGQDVQMVTENWLVLEPRGL
B2: CC2D1B (residues 317–558) (domain or fragment, UniProt Q5T0F9 317-558)
chain: GAVLEALEKGQPVDLSAMPPAPEDLKPQQASQAPTAPSVIPPAVERVQPVMAPDVPATPVAPTESQTVLDALQQRLNKYREAGIQARSGGDERKARMHERIAKQYQDAIRAHRAGRKVNFAELPVPPGFPPIPGLESTMGVEEDAVAATLAAAEKLASAEDSAPADKDEDEPPGHLQGEPPAQAPVAKKPARPTVPSSQRLPEPRASSSKESPSPSVREQLALLEARKLQYQRAALQAKRSQ

Legend:
[1] = biological target: T1, CHMP4B-L-GFP; experiment: co-IP; GFP-Trap magnetic microparticles, 2 h, clarified lysates of HCT116 cells stably expressing CHMP4B-L-GFP or CHMP2A-L-GFP; same lysis buffer as the GST pull-downs; western blot for endogenous CC2D1B
[2] = biological target: CC2D1B (residues 317–558) (human) (UniProt Q5T0F9); experiment: sucrose gradient centrifugation; sucrose step gradient 60-5% in HBS (0.01 M Hepes pH 7.4, 0.15 M NaCl), SW55 rotor 40,000 rpm 6 h 4°C; fractions on SDS-PAGE, Coomassie; top fractions monomers, bottom fraction polymers; with or without TEV cleavage and CC2D1B (residues 317-558); both purified

Binder | binding [1] | binding [2]
B1 | binds | –
B2 | – | no binding
